Experimental data published in the supplement of paper PMC5499739.
The full ranking holds about 16,000 sequences; the median of “Z-score” is about -0.37, and the highest 2% start at about 3.1. This is one part of the list.

Each sequence was assayed on RBM10 RRM1-ZnF-RRM2 (GST-tagged construct) (assay: RNAcompete 7-mer binding Z-score; higher = stronger binding preference).
Method: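 RNAcompete: 20 pmol GST-tagged RBM10 RNA-binding constructs were incubated with a designed RNA pool of about 241,000 sequences up to 41 nt (1.5 nmol) on glutathione beads for 30 min at 4 °C and washed. Bound RNAs were identified by microarray hybridisation. Each RNA 7-mer is scored by a one-sided Z-score of its enrichment, computed over probes that contain the 7-mer within longer pool sequences.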

Row | Sequence | RNAcompete 7-mer binding Z-score
1 | GCGCGGU | 1.03
2 | GCAUCAG | 0.301
3 | GUCCCCC | -0.22
4 | GACUAGC | -0.446
5 | CGACCGC | -0.774
6 | GGGAAGA | 3.65
7 | CCGGUAC | -0.333
8 | UCUUGGC | -0.664
9 | GGGGGGC | 2
10 | UCAUUUC | -0.846
11 | GGUAGAU | 1.38
12 | CUGAAGA | -0.402
13 | GCAUUCU | -0.777
14 | GGGCUUC | 0.432
15 | GUUCUUG | -0.599
16 | AGUACCC | -0.628
17 | UUUCUGA | -0.683
18 | GCAUAUC | -0.468
19 | AAGAAUA | -0.307
20 | GUCAUAA | -0.384
21 | CUAUUAC | -0.657
22 | GAGUAUC | -0.238
23 | ACCCUCG | -0.741

Row | Sequence | RNAcompete 7-mer binding Z-score
24 | UACGAUC | -0.61
25 | CUCCAGC | -0.726
26 | AUGAGUC | -0.00512
27 | AAUGUUU | -0.391
28 | UCCCGAG | -0.533
29 | ACAGUAA | 0.0677
30 | AGGCGCA | 0.181
31 | CAGGGCC | 0.49
32 | UUGAGUU | -0.176
33 | CUAAACU | -0.588
34 | GUAUUCA | -0.282
35 | GACGACU | -0.592
36 | CUCUUCU | -0.836
37 | CGGUAAU | 0.224
38 | UCUGUAA | -0.664
39 | UAAUUAA | -0.595
40 | UACCCUU | -0.857
41 | GAGACUU | -0.533
42 | CUCUAAC | -0.697
43 | AUUGGCC | -0.289
44 | CUCGGCC | -0.887
45 | UGCUAGA | -0.333
46 | CAACUAC | -0.628

Row | Sequence | RNAcompete 7-mer binding Z-score
47 | ACGCAUA | -0.231
48 | CGGCGUU | 0.181
49 | UUGUACA | -0.355
50 | UGGGAGU | 1.95
51 | CGUUCGU | -0.377
52 | CGUCGAA | -0.3
53 | UUGAAGU | -0.253
54 | ACGAACC | -0.49
55 | UGACGUC | -0.595
56 | GCAUGUA | -0.246
57 | CCGAAAC | -0.686
58 | CCAGAUC | -0.544
59 | AGAUUCU | -0.686
60 | CGCUCAU | -0.759
61 | GGUUUGC | 0.538
62 | UUCGUAG | -0.256
63 | AGAUCCC | -0.912
64 | UAUAAGG | 1.46
65 | CCUUAAU | -0.817
66 | GACAAUA | 0.0969
67 | UAAAGCU | -0.726
68 | CCGGGCG | 0.803
69 | CCCCGCC | -0.606

Row | Sequence | RNAcompete 7-mer binding Z-score
70 | CCUGUUC | -0.857
71 | AGCUUGA | -0.592
72 | CACCCAA | -0.785
73 | CGCUUCC | -0.737
74 | AGCGUCC | -0.664
75 | CCUCGAU | -0.814
76 | GAUUACG | 0.166
77 | GGACUAG | 0.705
78 | CGGUUGG | 1.91
79 | GUGGAAA | 2.46
80 | AGCAGGU | 1.74
81 | GUUAAAC | -0.00148
82 | CACACGG | 0.377
83 | AGUCGCU | -0.246
84 | UGUCGCU | -0.362
85 | AUCGCGU | -0.482
86 | UGUUCAC | -0.832
87 | CUAUCUA | -0.683
88 | UACUCGA | -0.675
89 | UAGACUA | -0.497
90 | CUUGGCA | -0.46
91 | UUCCAGC | -0.715
92 | CUCAAGU | -0.468

Row | Sequence | RNAcompete 7-mer binding Z-score
93 | GAAAACG | 0.752
94 | CGUUCAG | -0.351
95 | GCCCCCG | -0.271
96 | AAUUCAA | -0.431
97 | CUGGAGA | 0.512
98 | CUCUCAG | -0.683
99 | ACACGGC | -0.0634
100 | CGAAGAU | -0.428
101 | UCAGUAC | -0.213
102 | GCAAAGU | 0.334
103 | CACAAUU | -0.577
104 | GAACACC | -0.5
105 | AUGGUUC | 0.264
106 | CACGCAA | -0.395
107 | AGACGUG | 0.101
108 | AUUACCA | -0.628
109 | GGCCCAU | -0.715
110 | CGUUUCG | -0.588
111 | ACCGUGA | -0.435
112 | GUAAGGC | 2.12
113 | GUUUCCU | -0.632
114 | UUAGACG | -0.107
115 | CGGGCGU | 1.22

Row | Sequence | RNAcompete 7-mer binding Z-score
116 | GAAAGUG | 1.69
117 | GGCGACC | 0.301
118 | AUGACUA | -0.347
119 | ACACGCC | -0.683
120 | AUGAGCU | -0.0889
121 | CACUUGA | -0.846
122 | AGGCGAG | 1.7
123 | GCAUUAA | -0.391
124 | GAAUCGG | 1.71
125 | ACACUCU | -0.908
126 | AUUCCGC | -0.77
127 | CCUCAUA | -0.832
128 | CGAGUCU | -0.504
129 | AAACGUU | -0.344
130 | CGAAACA | -0.355
131 | CCCUGUC | -0.803
132 | ACCAUAC | -0.653
133 | UUCUCAU | -0.883
134 | AGGAGAC | 1.15
135 | GAGGGGU | 3.64
136 | ACGCAUC | -0.653
137 | CGAACGG | 1.41
138 | GAUCAGG | 2.02

Row | Sequence | RNAcompete 7-mer binding Z-score
139 | UUGAGCC | -0.683
140 | UGAUAUC | -0.479
141 | ACGAAUA | -0.238
142 | ACCCUGA | -0.646
143 | AUAUGAG | 0.763
144 | AACAACA | -0.027
145 | AACACAA | -0.111
146 | UGCCAGG | 0.301
147 | UUCAUUA | -0.439
148 | UGGUAAC | 1.03
149 | CCGGCCU | -0.81
150 | UUUAGCA | -0.49
151 | GUCGCAC | -0.246
152 | GGGUUUA | 1.95
153 | UUUAAUA | -0.573
154 | UAGUCAG | 0.119
155 | AAUUUGC | -0.814
156 | UGAUAGG | 2.37
157 | GGGUUCC | 0.811
158 | CGUGUGG | 1.22
159 | CGAGUUA | -0.0306
160 | CACGUUU | -0.952
161 | ACGCGAG | -0.0415

Row | Sequence | RNAcompete 7-mer binding Z-score
162 | ACCUCCG | -0.737
163 | GCUGUGC | -0.267
164 | AGGUACA | 1.11
165 | UUCCUGC | -0.81
166 | CACAGAC | -0.0962
167 | AUGACAC | -0.224
168 | UAUUUAC | -0.872
169 | CAUAGAU | -0.278
170 | UUCGCAU | -0.73
171 | GCUCCAG | -0.588
172 | CAACAAA | -0.275
173 | CCCGGCC | -0.799
174 | CAGAUGC | -0.267
175 | GCCACUA | -0.686
176 | AUCGUCG | -0.293
177 | AAUCAUA | -0.187
178 | UUGUAGG | 1.52
179 | AUGAAAC | -0.34
180 | ACCUCAC | -0.748
181 | AAUUGGA | 1.41
182 | ACGGUGA | 1.28
183 | UUAUUCA | -0.592
